Our source for the relative growth values is the supplement of paper PMC9446081.

Among all 39,000 compounds or so, about 220 (0.56%) showed activity. This is one part of the list.
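Further: static incubation at 37 °C against the wild-type strain, values averaged over two biological replicates.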

The subject of this experiment is Escherichia coli K-12 BW25113. Put plainly: relative growth (OD600 normalised to plate interquartile mean) (fraction); higher = less growth inhibition, active = 0.2 or less. Particulars: 50 µM; LB; incubation time: overnight (16-24 h).
As to `CNC[C@H]1OCCCC[C@H](C)Oc2ccc(NC(=O)c3ccncc3)cc2C(=O)N([C@H](C)CO)C[C@@H]1C`, the relative growth is inactive: 0.999.

With `COc1ccc(S(=O)(=O)Nc2ccc3c(c2)C(=O)N([C@@H](C)CO)C[C@@H](C)[C@H](CN(C)C(=O)Nc2ccc(F)cc2)OCCCC[C@@H](C)O3)cc1`, the relative growth was inactive: 1.03.

Take `C[C@@H]1CCCCO[C@H](CN(C)C(=O)Nc2ccc3c(c2)OCO3)[C@@H](C)CN([C@@H](C)CO)C(=O)c2cc(NC(=O)c3ccncc3)ccc2O1`: the relative growth was inactive: 0.997.

In the case of `Cc1noc(C)c1NC(=O)Nc1ccc2c(c1)CC(=O)N([C@H](C)CO)C[C@H](C)[C@H](CN(C)Cc1ccc(Oc3ccccc3)cc1)O2`, the relative growth was inactive: 0.987.

For `C[C@@H]1CCCCO[C@@H](CN(C)Cc2ccc(C(F)(F)F)cc2)[C@@H](C)CN([C@@H](C)CO)C(=O)c2cc(NS(=O)(=O)c3cn(C)cn3)ccc2O1`, the relative growth is inactive: 0.97.

With `C[C@H](NC(=O)N(C)C[C@H]1OCc2ccccc2-c2ccccc2C(=O)N([C@@H](C)CO)C[C@@H]1C)c1ccccc1`, the relative growth was inactive: 1.02.

On to `O=C(Cc1ccccn1)NCC[C@H]1CC[C@H](NC(=O)CN2CCOCC2)[C@H](CO)O1`, for which the relative growth is inactive: 1.01.

As to `CC(C)NC(=O)Nc1ccc2c(c1)C(=O)N([C@H](C)CO)C[C@H](C)[C@H](CN(C)C(=O)Nc1cccc3ccccc13)OCCCC[C@H](C)O2`, the relative growth is inactive: 0.909.

For `C[C@@H]1CCCCO[C@H](CN(C)C(=O)Nc2ccc3c(c2)OCO3)[C@@H](C)CN([C@@H](C)CO)C(=O)c2cc(NS(=O)(=O)c3ccc(F)cc3)ccc2O1`, the relative growth was inactive: 0.996.

For the compound `O=C(/C=C/c1cccc(-c2cn(-c3cccc(C(=O)N4CCC5(CC4)C(=O)NCN5c4ccccc4)c3)nn2)c1)NO`, the relative growth is inactive: 0.972.

`C[C@@H]1CN([C@@H](C)CO)C(=O)Cc2cc(NC(=O)Nc3ccc(C(F)(F)F)cc3)ccc2O[C@@H]1CN(C)Cc1ccc(C(F)(F)F)cc1`: the relative growth was inactive: 1.04.

As for `Cc1noc(C)c1NC(=O)N(C)C[C@@H]1OCCCC[C@H](C)Oc2ccc(NC(=O)Nc3ccc(F)cc3)cc2C(=O)N([C@@H](C)CO)C[C@@H]1C`, the relative growth is inactive: 0.987.

For `COC(=O)c1cc(-c2ccccc2)c(=O)n2c1N(C)[C@@]1(COCc3ccc(OC)cc3)Oc3ccccc3[C@@H]2[C@H]1CO[Si](C)(C)C(C)(C)C`, the relative growth was inactive: 1.04.

Turning to `CC(=O)Nc1ccc(S(=O)(=O)Nc2ccc([N+](=O)[O-])cc2)cc1`, the relative growth was inactive: 1.01.

As for `COc1ccc(NC(=O)[C@H]2[C@@H](c3ccc(C)cc3)CC(=O)N2C(=O)OCc2ccccc2)c2ncccc12`, the relative growth is inactive: 0.944.

Turning to `C[C@H](CO)N1C[C@H](C)[C@H](CN(C)Cc2ccc(Cl)c(Cl)c2)Oc2ccc(NC(=O)CCC(F)(F)F)cc2C1=O`, the relative growth is inactive: 0.992.

Regarding `C[C@H](CO)N1C[C@H](C)[C@H](CN(C)CC2CC2)Oc2ccc(NC(=O)CCN3CCOCC3)cc2CC1=O`, the relative growth is inactive: 1.

Consider `NS(=O)(=O)c1cccc2c1c([N+](=O)[O-])cc1[nH]c(=O)c(=O)[nH]c12`, for which the relative growth is inactive: 0.971.

`CN1C[C@@H](N)CC1=O`: the relative growth is inactive: 1.01.

As for `COc1ccc(COC[C@]23Oc4ccccc4[C@H]([C@H]2CO[Si](C)(C)C(C)(C)C)N(C(=O)CC(C)=O)C(=O)N3C)cc1`, the relative growth was inactive: 1.

As for `CN(C)CCCNC(=O)C[C@@H]1CC[C@H]2[C@@H](COC[C@@H](O)CN2S(=O)(=O)c2ccccc2)O1`, the relative growth is inactive: 0.994.

Take `C[C@@H]1CN([C@@H](C)CO)C(=O)c2cc(NS(=O)(=O)c3ccccc3)ccc2O[C@@H](C)CCCCO[C@@H]1CN(C)S(=O)(=O)c1ccc(Cl)cc1`: the relative growth was inactive: 1.01.

As for `COc1ccc(NC(=O)N(C)C[C@@H]2Oc3ccc(NC(=O)CCCCCC(=O)Nc4ccccc4N)cc3CC(=O)N([C@H](C)CO)C[C@@H]2C)cc1`, the relative growth was inactive: 0.973.

For the compound `C[C@H](CO)N1C[C@H](C)[C@H](CN(C)Cc2ccc(C(=O)Nc3ccccc3N)cc2)Oc2ccc(NS(C)(=O)=O)cc2C1=O`, the relative growth was inactive: 1.01.

For `COc1ccc(S(=O)(=O)N(C)C[C@@H]2Oc3ccc(NS(=O)(=O)c4ccc(F)cc4)cc3CC(=O)N([C@H](C)CO)C[C@@H]2C)cc1`, the relative growth is inactive: 1.01.

Take `NNC(=O)c1cc(-c2ccccc2)n[nH]1`: the relative growth is inactive: 0.937.

As to `C[C@H](CO)N1C[C@H](C)[C@@H](CN(C)C(=O)CCCN(C)C)OCCCC[C@H](C)Oc2ccc(NC(=O)Nc3cccc4ccccc34)cc2C1=O`, the relative growth is inactive: 0.98.

Turning to `C[C@@H]1CN([C@@H](C)CO)C(=O)CCCn2nncc2CO[C@H]1CN(C)C(=O)Nc1ccc(C(C)(C)C)cc1`, the relative growth was inactive: 1.

As to `C[C@H](CO)N1C[C@H](C)[C@@H](CN(C)Cc2ccccc2)OCCCC[C@H](C)Oc2ccc(NS(=O)(=O)c3ccc(Cl)cc3)cc2C1=O`, the relative growth was inactive: 1.03.

Take `CCCNC(=O)C[C@@H]1CC[C@H]2NC[C@H](O)COC[C@@H]2O1`: the relative growth is inactive: 1.01.

Consider `C[C@@H]1CN([C@@H](C)CO)C(=O)c2cccc(NS(C)(=O)=O)c2O[C@H]1CN(C)C(=O)NC1CCCCC1`, for which the relative growth is inactive: 1.01.

For the compound `C[C@@H]1CN([C@@H](C)CO)C(=O)Cc2cc(NC(=O)C3CC3)ccc2O[C@@H]1CN(C)S(=O)(=O)c1cn(C)cn1`, the relative growth was inactive: 1.03.

Consider `COc1ccc(S(=O)(=O)Nc2ccc3c(c2)C(=O)N([C@H](C)CO)C[C@@H](C)[C@@H](CN(C)S(=O)(=O)c2ccc(F)cc2)O3)cc1`, for which the relative growth is inactive: 1.03.

Regarding `O=C1O[C@@H](c2ccccc2)[C@@H](c2ccccc2)N2[C@@H](c3ccc(O)cc3)[C@]3(C(=O)Nc4ccc(C#CC5=CCCCC5)cc43)[C@@H](C(=O)O)[C@H]12`, the relative growth is inactive: 0.968.

For the compound `C[C@@H]1CCCCO[C@H](CN(C)C(=O)Nc2ccc(C(F)(F)F)cc2)[C@H](C)CN([C@H](C)CO)C(=O)c2cc(NC(=O)C3CCCCC3)ccc2O1`, the relative growth is inactive: 0.993.

Regarding `C[C@H]1CCCCO[C@H](CN(C)CC2CCCCC2)[C@@H](C)CN([C@@H](C)CO)C(=O)c2cc(NC(=O)c3ccncc3)ccc2O1`, the relative growth was inactive: 0.996.

In the case of `CON=C1CN(c2nc3c(cc2F)c(=O)c(C(=O)O)cn3C2CC2)CC1CN.CS(=O)(=O)O` (configuration not stated), the relative growth is active: 0.0419.

For `C[C@H]1CCCCO[C@@H](CN(C)C(=O)Nc2ccccc2)[C@@H](C)CN([C@@H](C)CO)C(=O)c2cc(NC(=O)Nc3ccc4c(c3)OCO4)ccc2O1`, the relative growth is inactive: 1.05.

With `COc1ccc(CN(C)C[C@@H]2OCCCC[C@@H](C)Oc3ccc(NC(=O)NC(C)C)cc3C(=O)N([C@H](C)CO)C[C@@H]2C)cc1`, the relative growth was inactive: 1.04.

With `C[C@H](CO)N1C[C@H](C)[C@H](CN(C)C(=O)Nc2ccc(F)cc2)Oc2ncc(C#CCN(C)C)cc2C1=O`, the relative growth is inactive: 1.01.

With `C[C@@H]1CN([C@H](C)CO)S(=O)(=O)c2ccc(C#CCN(C)C)cc2O[C@H]1CN(C)C`, the relative growth is inactive: 1.01.

Turning to `O=C(NCc1ccc2c(c1)OCO2)[C@@H]1[C@@H](CO)[C@@H]2Cn3c(cccc3=O)[C@H]1N2Cc1cncnc1`, the relative growth was inactive: 1.04.

Regarding `COc1ccc(NC(=O)Nc2ccc3c(c2)C(=O)N([C@@H](C)CO)C[C@H](C)[C@@H](CN(C)CC2CC2)OCCCC[C@H](C)O3)cc1`, the relative growth is inactive: 0.983.

As to `C[C@H]1CN([C@@H](C)CO)C(=O)c2cccc(NC(=O)CCCCCC(=O)Nc3ccccc3N)c2O[C@@H]1CN(C)C(=O)Nc1ccc(F)cc1`, the relative growth was inactive: 0.991.

For `CC1CN(c2c(F)c(N)c3c(=O)c(C(=O)O)cn(C4CC4)c3c2F)CC(C)N1` (configuration not stated), the relative growth was active: 0.0495.

`COc1ccc(NC(=O)N(C)C[C@H]2OCCCC[C@H](C)Oc3ccc(NC(=O)NC4CCCCC4)cc3C(=O)N([C@H](C)CO)C[C@H]2C)cc1`: the relative growth is inactive: 1.01.

As for `C[C@@H]1CN([C@@H](C)CO)C(=O)c2cc(NC(=O)C3CCCCC3)ccc2O[C@@H](C)CCCCO[C@H]1CN(C)C(=O)Nc1ccccc1`, the relative growth is inactive: 1.02.

As for `C[C@@H]1CCCCO[C@@H](CN(C)S(=O)(=O)c2cccs2)[C@@H](C)CN([C@@H](C)CO)C(=O)c2cc(NC(=O)Nc3ccccc3)ccc2O1`, the relative growth is inactive: 1.06.

In the case of `CS(=O)(=O)NCc1cnc2n1CCN(C(=O)[C@H]1CCOC1)CC2`, the relative growth was inactive: 1.05.

As to `C[C@@H]1COC(=O)[C@H](Cc2ccc(F)cc2)CC=CC[C@@H](CC(=O)N(CCO)Cc2ccccc2)C(=O)N1`, the relative growth was inactive: 1.01.

On to `COc1ccc(NC(=O)N(C)C[C@H]2Oc3ccc(NC(=O)CCCN(C)C)cc3C(=O)N([C@H](C)CO)C[C@@H]2C)cc1`, for which the relative growth is inactive: 1.03.

`CN1C(=O)c2cc(NC(=O)C3CCOCC3)ccc2OC[C@@H]2O[C@H](CC(=O)NCCc3ccncc3)CC[C@H]21`: the relative growth is inactive: 1.01.

In the case of `Cc1ccc(S(=O)(=O)Nc2ccc3c(c2)C(=O)N([C@@H](C)CO)C[C@@H](C)[C@H](CN(C)S(=O)(=O)c2ccc(C)cc2)OCCCC[C@H](C)O3)cc1`, the relative growth is inactive: 1.03.

Turning to `Cc1noc(C)c1S(=O)(=O)Nc1ccc2c(c1)C(=O)N([C@@H](C)CO)C[C@H](C)[C@H](CN(C)C(=O)Nc1cccc3ccccc13)OCCCC[C@H](C)O2`, the relative growth is inactive: 0.991.

Consider `c1csc(CNc2ccc(NCc3cccs3)cc2)c1`, for which the relative growth is inactive: 0.996.

Turning to `C[C@@H]1CCCCO[C@@H](CN(C)C(=O)Nc2ccc(C(F)(F)F)cc2)[C@H](C)CN([C@H](C)CO)C(=O)c2cc(NS(=O)(=O)c3cn(C)cn3)ccc2O1`, the relative growth is inactive: 0.924.

As to `CO[C@@H]1CN(C)C(=O)c2cc(NC(=O)Nc3ccccc3F)ccc2OC[C@@H](C)N(CCC(F)(F)F)C[C@H]1C`, the relative growth was inactive: 1.03.
